2 molecules from publication PMC4536226 can be followed below.

What all share (experiment): co-IP; S2R+ cells co-transfected with HA-Fu variants, V5-Su(fu) and Myc-Cos2, and with Fu 3'UTR dsRNA to knock down endogenous Fu; IP with anti-HA matrix; with or without HhN stimulation (Fig 2C); lysis in PBS with 1.0% Triton X-100
In one experiment the target is T1, Fu301-805 (Drosophila) (UniProt P23647).
T1 sequence: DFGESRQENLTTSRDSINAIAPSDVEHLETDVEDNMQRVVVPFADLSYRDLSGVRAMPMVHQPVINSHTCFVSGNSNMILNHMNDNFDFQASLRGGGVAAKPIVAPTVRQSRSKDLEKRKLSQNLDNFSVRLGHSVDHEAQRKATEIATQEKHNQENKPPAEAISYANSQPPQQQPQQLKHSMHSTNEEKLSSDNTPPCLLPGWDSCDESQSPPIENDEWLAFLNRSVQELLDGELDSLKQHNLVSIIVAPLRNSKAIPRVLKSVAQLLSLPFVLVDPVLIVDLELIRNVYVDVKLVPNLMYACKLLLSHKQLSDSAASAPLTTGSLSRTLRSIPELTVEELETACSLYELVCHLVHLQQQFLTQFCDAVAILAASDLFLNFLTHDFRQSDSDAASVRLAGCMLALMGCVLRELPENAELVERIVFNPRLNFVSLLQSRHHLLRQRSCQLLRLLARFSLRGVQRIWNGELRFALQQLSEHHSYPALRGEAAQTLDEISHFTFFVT

The target of another experiment is T2, Fu361-805 (Drosophila) (UniProt P23647).
T2 sequence: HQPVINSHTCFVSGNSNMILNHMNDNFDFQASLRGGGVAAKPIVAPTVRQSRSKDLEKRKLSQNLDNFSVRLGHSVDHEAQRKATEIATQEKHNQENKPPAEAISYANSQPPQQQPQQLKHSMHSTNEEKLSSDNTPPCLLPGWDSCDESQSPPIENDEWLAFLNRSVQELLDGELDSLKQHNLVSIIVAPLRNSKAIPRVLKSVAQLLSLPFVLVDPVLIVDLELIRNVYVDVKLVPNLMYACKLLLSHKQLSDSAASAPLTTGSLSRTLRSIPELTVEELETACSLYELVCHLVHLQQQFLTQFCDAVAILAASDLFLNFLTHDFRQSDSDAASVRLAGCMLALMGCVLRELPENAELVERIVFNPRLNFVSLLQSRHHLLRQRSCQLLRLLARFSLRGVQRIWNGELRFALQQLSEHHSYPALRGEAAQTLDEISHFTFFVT

Another experiment addresses T3, Fu^K33A (Drosophila) (UniProt P23647).
T3 sequence: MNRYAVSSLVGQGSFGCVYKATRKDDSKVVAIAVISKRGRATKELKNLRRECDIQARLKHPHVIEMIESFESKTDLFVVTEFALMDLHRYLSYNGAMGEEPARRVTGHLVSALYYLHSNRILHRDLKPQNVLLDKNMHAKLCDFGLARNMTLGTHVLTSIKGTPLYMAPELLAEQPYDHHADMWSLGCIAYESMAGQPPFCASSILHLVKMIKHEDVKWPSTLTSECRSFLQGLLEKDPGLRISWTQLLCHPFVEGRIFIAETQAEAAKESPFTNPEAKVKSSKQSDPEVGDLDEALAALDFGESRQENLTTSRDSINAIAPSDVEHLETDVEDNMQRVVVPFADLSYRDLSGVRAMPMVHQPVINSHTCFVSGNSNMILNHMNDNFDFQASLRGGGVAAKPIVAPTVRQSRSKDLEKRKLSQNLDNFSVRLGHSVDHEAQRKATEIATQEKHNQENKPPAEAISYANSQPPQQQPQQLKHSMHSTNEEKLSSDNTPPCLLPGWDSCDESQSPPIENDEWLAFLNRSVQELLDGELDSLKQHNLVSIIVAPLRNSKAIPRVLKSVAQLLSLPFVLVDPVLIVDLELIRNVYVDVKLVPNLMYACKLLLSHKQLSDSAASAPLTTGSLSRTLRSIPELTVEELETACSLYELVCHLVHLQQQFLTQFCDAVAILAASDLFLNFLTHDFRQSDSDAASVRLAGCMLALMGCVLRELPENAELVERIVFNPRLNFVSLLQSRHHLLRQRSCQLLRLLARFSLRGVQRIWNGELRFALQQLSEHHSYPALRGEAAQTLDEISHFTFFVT

The target of experiment [1] is T4, N-terminally HA-tagged full-length Fu (HA-Fu) (Drosophila) (UniProt P23647).
T4 sequence: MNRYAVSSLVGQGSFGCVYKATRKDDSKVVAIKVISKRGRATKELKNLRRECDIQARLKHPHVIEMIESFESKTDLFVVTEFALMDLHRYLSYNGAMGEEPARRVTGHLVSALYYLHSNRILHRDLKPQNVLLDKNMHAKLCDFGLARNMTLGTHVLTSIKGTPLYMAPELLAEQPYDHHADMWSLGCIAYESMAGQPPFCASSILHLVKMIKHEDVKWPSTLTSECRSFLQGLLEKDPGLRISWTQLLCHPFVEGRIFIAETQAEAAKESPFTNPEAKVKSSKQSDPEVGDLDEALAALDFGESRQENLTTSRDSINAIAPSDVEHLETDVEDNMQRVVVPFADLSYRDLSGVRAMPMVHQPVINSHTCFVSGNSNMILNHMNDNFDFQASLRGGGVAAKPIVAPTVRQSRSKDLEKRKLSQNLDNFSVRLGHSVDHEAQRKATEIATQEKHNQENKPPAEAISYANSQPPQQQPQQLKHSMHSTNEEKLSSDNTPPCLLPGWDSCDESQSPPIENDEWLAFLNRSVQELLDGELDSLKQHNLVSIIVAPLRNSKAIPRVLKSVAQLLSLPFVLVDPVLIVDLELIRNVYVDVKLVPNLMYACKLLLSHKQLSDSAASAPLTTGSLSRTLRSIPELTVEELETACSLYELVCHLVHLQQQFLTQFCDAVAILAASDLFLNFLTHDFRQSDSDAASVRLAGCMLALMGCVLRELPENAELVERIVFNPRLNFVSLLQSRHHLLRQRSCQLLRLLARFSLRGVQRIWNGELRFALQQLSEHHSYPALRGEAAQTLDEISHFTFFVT

Results are given in words; binding and its absence hold for the method and conditions named. Binding seen in cells or lysates may run through a third protein. Some results given as binding are weak or reduced against the parent protein; the word gives no strength. Tags and fused reporters may be left off the sequences shown.

B1: Myc-tagged Cos2 (Myc-Cos2) (protein, UniProt O16844 1-1201)
chain: MEIPIQVAVRIFPHRELKDLLRSFGPTEPKKDAQAVDEGADSKDSEAQVPAAEKDNPSISETDPNGNAEQDSAADSKTIPDANGNDSGQKDYPDSAYCVQAIPISASALGLPSALPGGDPMDSIAAGLIQVGPHTVPVTHALPSSSSQEQVYHQTVFPLITLFLEGFDASVVTYGQRGQGKSYTLYGNVQDPTLTDSTEGVVQLCVRDIFSHISLHPERTYAINVGFVEICGGDVCDLLGMGNIHCTNVDAVFHWLQVGLSARQSLPAHTLFTLTLEQQWVSKEGLLQHRLSTASFSDLCGTERCGDQPPGRPLDAGLCMLEQVISTLTDPGLMYGVNGNIPYGQTTLTTLLKDSFGGRAQTLVILCVSPLEEHLPETLGNLQFAFKVQCVRNFVIMNTYSDDNTMIVQPAEPVPESNSSAGPLSQAGPGDNFGLQFAASQWSKLVTNAEGLFSKLIDSKLITEVEKEQIEEWLFLKQECEECLSSTEAMRQQKQLVPILEAEEPEDVNSEAANSESPNSDNENDTDNESHRPDLDDKIESLMEEFRDKTDALILEKHAEYLSKHPKAVMQSQDREIEAQPPEENGDDRKVSIGSRRRSVQPGASLSTAELAMLNRVASQQPPPPIDPESVVDPLESSSGEGIRQAALAAAAATAPIEQLQKKLRKLVAEIEGKQRQLREIEETIQVKQNIIAELVKNSDTRSHAKQRFHKKRAKLEAECDKAKKQLGKALVQGRDQSEIERWTTIIGHLERRLEDLSSMKHIAGESGQKVKKLQQSVGESRKQADDLQKKLRKECKLRCQMEAELAKLRESRETGKELVKAQGSPEQQGRQLKAVQARITHLNHILREKSDNLEEQPGPEQQETLRHEIRNLRGTRDLLLEERCHLDRKLKRDKVLTQKEERKLLECDEAIEAIDAAIEFKNEMITGHRSIDTSDRIQREKGEQMLMARLNRLSTEEMRTLLYKYFTKVIDLRDSSRKLELQLVQLERERDAWEWKERVLSNAVRQARLEGERNAVLLQRQHEMKLTLMLRHMAEETSASSASYGERALAPACVAPPVQASSDFDYDHFYKGGGNPSKALIKAPKPMPTGSALDKYKDKEQRSGRNIFAKFHVLTRYASAAAAGSSGSTAEESTALIESTTTATATTTSTTTTGAVGKVKDKALVSFRPEQLKRLMPAPTATKVTRQKNKIIIQDASRRN
Turning to B1, the binding entry (in the experiment with Fu301-805 (Drosophila); with Fu361-805 (Drosophila); with Fu^K33A (Drosophila); in experiment [1]) was “binds” each time.

B2: V5-tagged Suppressor of fused (V5-Su(fu)) (protein, UniProt Q9VG38 1-468)
chain: MAEANLDKKPEVKPPPGLKAIIDHLGQVYPNQPNPLQVTTLLKYWLGGQDPLDYISMYNYPGDVDRNVPPHWHYISFGLSDLHGDERVHLREEGVTRSGMGFELTFRLAKTEIELKQQIENPEKPQRPPTWPANLLQAIGRYCFQTGNGLCFGDNIPWRKSLDGSTTSKLQNLLVAQDPQLGCIDTPTGTVDFCQIVGVFDDELEQASRWNGRGVLNFLRQDMQTGGDWLVTNMDRQMSVFELFPETLLNLQDDLEKQGSDLAGVNADFTFRELKPTKEVKEEVDFQALSEKCANDENNRQLTDTQMKREEPSFPQSMSMSSNSLHKSCPLDFQAQAPNCISLDGIEITLAPGVAKYLLLAIKDRIRHGRHFTFKAQHLALTLVAESVTGSAVTVNEPYGVLGYWIQVLIPDELVPRLMEDFRSAGLDEKCEPKERLELEWPDKNLKLIIDQPEPVLPMSLDAAPLKM
B2: the binding result was “binds weakly” with Fu301-805 (Drosophila), “binds weakly” with Fu361-805 (Drosophila), “binds” with Fu^K33A (Drosophila) and “binds weakly” in experiment [1].
